Experimental data from PubChem BioAssay AID493208 (National Center for Advancing Translational Sciences (NCATS), 2011).
About 340 (0.77%) of roughly 44,000 compounds were called active. Inconclusive results (about 5%) are left out. The call rests on the fitted dose curve; in most records, active means well fitted inhibition curve with a large enough effect; inconclusive means small, poorly fitted or top-dose-only effect; inactive means flat fitted curve, though single readings scatter. The list shows a part of the results.

Assay: Acumen qHTS Assay for Inhibitors of the mTORC1 Signaling Pathway in MEF (Tsc2-/-, p53-/-) Cells: Sytravon;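 further: plate controls were DMSO for no effect and rapamycin for full effect; nearly all actives have a fitted effect of over 50% in size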
Conditions: phospho-rpS6 immunofluorescence/PI, 24 h; series mostly up to 38.3 µM; activity change, negative = inhibition: at the top concentration
Procedure, shortened: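 Readout is phospho-S6 Alexa 488 signal normalized to PI per well, reported as % active cells with thresholds set from rapamycin (7.5 nM) and DMSO controls. Cells: Tsc2-/-, p53-/- MEFs, 24 hrs compound at 37 C; PI cell number serves as viability.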

**Q.** Which “activity change, negative = inhibition” value does the source give for `CCOc1ccc(C(=O)Nc2ccc3oc(-c4ccncc4)nc3c2)cc1` here?
**A.** inactive: 2.86%

**Q.** For `CCc1cccc(C)c1NC(=O)C(CC)Sc1nncn2c1cc1occc12` (stereo not given), which “activity change, negative = inhibition” value is on record?
**A.** inactive: -18%

**Q.** For `CCC(=O)Nc1cc(-c2nc3ccccc3s2)c(Cl)cc1Cl`, which “activity change, negative = inhibition” value is on record?
**A.** inactive: 4.35%

**Q.** With `CCCNc1nc2c(c(=O)n(C)c(=O)n2C)n1CC(O)COc1ccccc1` (stereo not given) as the compound, how does the “activity change, negative = inhibition” value read?
**A.** inactive: 8.33%

**Q.** Which “activity change, negative = inhibition” value does the source give for `COc1ccc(NC(=O)c2oc3ccccc3c2NC(=O)COc2ccc(F)cc2)c(OC)c1` here?
**A.** inactive: -0.193%

**Q.** Which “activity change, negative = inhibition” value does the source give for `Cn1c(=O)n(C)c2cc(NS(=O)(=O)c3ccc(C(C)(C)C)cc3)c(NCc3ccccc3)cc21` here?
**A.** inactive: 1.51%

**Q.** With `Cc1cccc(C(=O)Nc2nnc(S(=O)(=O)N3CCCc4ccccc43)s2)c1` as the compound, how does the “activity change, negative = inhibition” value read?
**A.** inactive: -1.11%

**Q.** For `Cc1ccc(NC(=O)Cn2cc(C(=O)C3CCCCC3)c3ccccc32)c(C)c1`, which “activity change, negative = inhibition” value is on record?
**A.** inactive: 0.965%

**Q.** Which “activity change, negative = inhibition” value does the source give for `O=C(c1ccc2c(c1)N(Cc1ccc(Cl)cc1)C(=O)c1ccccc1S2(=O)=O)N1CCc2ccccc21` here?
**A.** inactive: 1.56%

**Q.** Which “activity change, negative = inhibition” value does the source give for `CCC(C(=O)Nc1cccc(C#N)c1)n1nc(-c2ccccc2)ccc1=O` (stereo not given) here?
**A.** inactive: -10.8%

**Q.** With `Cc1ccc(NC(=O)CCCn2nc(C)c3sc4ccccc4c3c2=O)c(Cl)c1` as the compound, how does the “activity change, negative = inhibition” value read?
**A.** inactive: -0.848%

**Q.** Which “activity change, negative = inhibition” value does the source give for `COC(=O)c1ccccc1NC(=O)CSc1nnc2cc(C)c3cc(C)cc(C)c3n12` here?
**A.** inactive: -5.4%

**Q.** With `Cc1ccc(-c2nnc(Nc3cccc(Br)c3)c3ccccc23)cc1S(=O)(=O)NCC1CCCO1` (stereo not given) as the compound, how does the “activity change, negative = inhibition” value read?
**A.** inactive: -0.426%

**Q.** Which “activity change, negative = inhibition” value does the source give for `O=C(NCc1ccc(F)cc1)C(=O)NCC(c1ccco1)S(=O)(=O)c1cccs1` (stereo not given) here?
**A.** inactive: -8.29%

**Q.** Which “activity change, negative = inhibition” value does the source give for `O=C(Cn1ccc2cc(S(=O)(=O)N3CCCC3)ccc21)NCc1ccccc1Cl` here?
**A.** inactive: -1.23%

**Q.** For `CCOc1ccc(C2C(=O)N(C3CCCCCC3)CC(=O)N2CCc2ccc(Cl)cc2)cc1OC` (stereo not given), which “activity change, negative = inhibition” value is on record?
**A.** inactive: -1.82%

**Q.** With `CCN1c2ccccc2-c2nc(SCC(=O)Nc3cc(F)ccc3F)ncc2S1(=O)=O` as the compound, how does the “activity change, negative = inhibition” value read?
**A.** inactive: -7.38%

**Q.** With `CCOc1ccc(NC(=O)CCn2nc(C)c(S(=O)(=O)N3CCCCC3)c2C)cc1` as the compound, how does the “activity change, negative = inhibition” value read?
**A.** inactive: 0%

**Q.** With `Cc1nnc(NCc2ccc(F)cc2)c2c1nnn2Cc1ccccc1Cl` as the compound, how does the “activity change, negative = inhibition” value read?
**A.** inactive: -2.66%

**Q.** With `COc1ccccc1N1CCN(S(=O)(=O)c2c(C)sc3ncn(CC(=O)NCCN(C)C)c(=O)c23)CC1` as the compound, how does the “activity change, negative = inhibition” value read?
**A.** inactive: -3.01%

**Q.** For `CCc1ccc(N2C(=O)N(CC(=O)C(C)(C)C)c3ccccc3S2(=O)=O)cc1`, which “activity change, negative = inhibition” value is on record?
**A.** inactive: -6.79%

**Q.** With `O=C(NCCC1=CCCCC1)c1ccc2c(c1)N(Cc1ccc(Cl)cc1)C(=O)c1ccccc1S2(=O)=O` as the compound, how does the “activity change, negative = inhibition” value read?
**A.** inactive: -0.0119%

**Q.** With `COc1ccc(OC)c(NC(=O)CSC2=Nc3ccccc3C3=NC(CCC(=O)NCCc4ccccc4)C(=O)N23)c1` (stereo not given) as the compound, how does the “activity change, negative = inhibition” value read?
**A.** inactive: -1.15%

**Q.** For `Cc1c(Cl)cccc1NC(=O)Cn1cnc(S(=O)(=O)N2CCCC2)c1`, which “activity change, negative = inhibition” value is on record?
**A.** inactive: -7.32%

**Q.** For `COc1ccc(NC(=O)CC2C(=O)N(c3ccc(C)cc3)C(=O)N2Cc2ccc(C)cc2)cc1` (stereo not given), which “activity change, negative = inhibition” value is on record?
**A.** inactive: 0.385%
